Experimental data reported in PubChem BioAssay AID1345082 (National Center for Advancing Translational Sciences (NCATS), 2018).
Among all 94,000 compounds or so, about 4,000 (4.3%) were called active. Inconclusive results, whose numbers are uncertain, are shown with a selection of clear calls. Calls follow the shape of the dose curve; as a rule, active = well fitted inhibition curve with a large enough effect; inconclusive = small, poorly fitted or top-dose-only effect; inactive = no such curve, though single readings can be large or run the other way. Potencies of inconclusive entries are doubtful fits and often do not repeat.

Assay: Cytotoxic Profiling in NIH 3T3 Cell Line of Diverse Libraries Using Quantitative High-Throughput Screening; also: nearly all actives have a fitted effect of over 55% in size
Details: NIH 3T3 viability, CellTiter-Glo ATP luminescence, 48-72 h; series mostly up to 96.7 µM
Outline: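 NIH 3T3 cells at 400 cells/well received 23 nL of compound by pintool and were incubated 48 or 72 h at 37 °C. Viability was read as ATP-coupled CellTiter-Glo luminescence.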
Potency is read from the fitted curve at half-maximal effect; tags tell the direction and shape of the fitted curve.

Row | Compound | Potency
1 | O=C1NC2(CCN(Cc3ccc(F)cc3)CC2)COc2ccccc21 | inactive
2 | Cc1ccccc1[S+](=O)([O-])N1CCC2(CC1)OCCN(Cc1ccccc1)C2=O | inconclusive: 89.1 µM [inhibitor, partial curve]
3 | CCS(=O)(=O)N1CCC[C@H](n2c(=O)n(C)c3cccnc32)C1 | inactive
4 | COc1ccc2nc([C@H]3CCN(Cc4ccc5c(c4)OCO5)C3)[nH]c2c1 | inconclusive: 89.1 µM [inhibitor, partial curve, poor fit]
5 | COc1ccc(C(=O)NCC23CCCC=C2NC(=O)CC3)cc1OC (configuration not stated) | inactive
6 | CC(C)(C)CN1CCOC[C@H]1c1ncc(-c2ccc(C(F)(F)F)cc2)[nH]1 | active: 79.4 µM
7 | Cc1noc(C2CC3(CCN(C(=O)c4nn(C)c5ccccc45)CC3)CN2C)n1 (configuration not stated) | inconclusive: 70.8 µM [inhibitor, single point]
8 | CN(C)[C@H]1CCCCN(C(=O)c2cnc3ccccn3c2=O)C1 | inactive
9 | c1ccc(-c2ccc3ncc(Nc4ccccn4)n3n2)cc1 | inconclusive: 44.7 µM [inhibitor, partial curve, poor fit]
10 | COc1cc(OC)cc(OCC2CN(Cc3cccc(C(F)(F)F)c3)C(=O)c3c(ccnc3-c3ccc(OCC(=O)O)cc3)O2)c1 (configuration not stated) | inconclusive: 50.1 µM [inhibitor, partial curve, poor fit]
11 | CCC(CC)C(=O)N1CCC(=O)N(CCOC)C[C@H]2COc3ccccc3[C@H]21 | inactive
12 | CN1[C@@H](CCC(=O)NCc2cccs2)CNC(=O)[C@@H]2[C@H]1CCN2Cc1ncc[nH]1 | inactive
13 | COc1cccc(CN2CCC(Cn3c(C)cnc3-c3ccccc3)CC2)c1OC | inactive
14 | COc1ccc(CN2CCC3(C2)C(=O)N(C)c2ccccc23)cc1 (configuration not stated) | inconclusive: 35.5 µM [inhibitor, partial curve, poor fit]
15 | O=c1n(-c2ccc(C(F)(F)F)cc2)nc2n1CCN(CC1CCCCC1)C2 | inconclusive: 50.1 µM [inhibitor, partial curve, poor fit]
16 | O=C(CCc1ccccc1)N1CCCN(c2cc(-c3ccccc3)[nH]n2)CC1 | inconclusive: 50.1 µM [inhibitor, partial curve, poor fit]
17 | CC(C)n1nc(OC(C)(C)C(=O)Nc2ccccc2)c2cc(CN3CCOCC3)ccc21 | inconclusive: 89.1 µM [inhibitor, partial curve, poor fit]
18 | CCCCN(C)C(=O)c1c(C)sc2ccn(CCC)c(=O)c12 | inactive
19 | CC(C)C[C@@H]1N[C@H](C(=O)N2CCN(C)CC2)Cc2cn(Cc3ccccn3)c3cccc1c23 | inconclusive: 89.1 µM [inhibitor, single point]
20 | COC(=O)c1cccc(NC(=S)N[C@H]2CO[C@H]3[C@@H]2OC[C@H]3OC(=O)Nc2cccc3ccccc23)c1 | inconclusive: 50.1 µM [inhibitor, partial curve, poor fit]
21 | CCOC(=O)c1ccc(NC(=O)Cn2c(N3CCC(C)CC3)nc(C)cc2=O)cc1 | inconclusive: 31.6 µM [inhibitor, partial curve, poor fit]

Row | Compound | Potency
22 | Cc1cc(C(=O)N2C[C@@H](C)[C@@](C)(O)C2)cc(S(N)(=O)=O)c1C | inactive
23 | CC(=O)NC1CCN(c2nccc(Nc3ccc(C)cc3)n2)CC1 | inconclusive: 89.1 µM [inhibitor, partial curve, poor fit]
24 | COc1cccc(C(=O)NC2CCN(c3cc(-c4ccc(Cl)cc4)[nH]n3)CC2)c1OC | inconclusive: 39.8 µM [inhibitor, partial curve, poor fit]
25 | Cc1ccnn1CCC(=O)N1CCOC(Cc2ccc(F)cc2)C1 (configuration not stated) | inactive
26 | COc1cccc(N2CCN(C(=O)CCn3ccn4nc5c(c4c3=O)CCCC5)CC2)c1 | inconclusive: 44.7 µM [inhibitor, partial curve, poor fit]
27 | Cc1ccc([S+](=O)([O-])N2CCCN(c3nc4ncccc4o3)CC2)cc1 | inconclusive: 56.2 µM [inhibitor, partial curve, poor fit]
28 | O=C1Nc2ccccc2CC12CCCN2CC1CCCCC1 (configuration not stated) | inconclusive: 79.4 µM [inhibitor, partial curve, poor fit]
29 | O=C(c1cccc(Cl)c1)N1CCN(C(=O)c2cccc(-c3ccccn3)c2)CC1 | inconclusive: 35.5 µM [inhibitor, partial curve, poor fit]
30 | O=C(Nc1cccc(Cl)c1)N1CCC2(CC1)SCC(=O)N2Cc1ccco1 | inconclusive: 50.1 µM [inhibitor, single point]
31 | COCCC1(NS(C)(=O)=O)CCN(C(=O)NCC(C)C)CC1 | inactive
32 | Cn1cc(CN2CCc3ccccc32)ccc1=O | inconclusive: 35.5 µM [inhibitor, partial curve]
33 | O=C1Cc2c(-c3ccsc3)n[nH]c2CN1CC1CCOCC1 | inconclusive: 8.91 µM [inhibitor, full curve, poor fit]
34 | COc1ccccc1Nc1ncc2c(n1)CN(C(=O)c1ccnn1C)CCN2 | inconclusive: 50.1 µM [inhibitor, full curve, poor fit]
35 | Clc1cccc(Nc2cc3c(cn2)CN(Cc2cccnc2)CCN3)c1 | inconclusive: 50.1 µM [inhibitor, full curve, poor fit]
36 | C[C@]1(CO)[C@H]2Cc3sc(NC(=O)c4ccc(F)cc4)nc3[C@@H](CC(=O)N3CCCCC3)[C@]2(C)CC[C@H]1O | inconclusive: 100 µM [inhibitor, single point]
37 | CN(C(=O)c1ccc(C(F)(F)F)cc1)C1CCOc2ccccc21 (configuration not stated) | inconclusive: 100 µM [inhibitor, partial curve, poor fit]
38 | COCCNC(=O)[C@@H]1CCCN1c1nccc(Nc2ccccc2Cl)n1 | inactive
39 | CC1(COc2cccnc2)COc2ccc(C(=O)Nc3ccc4[nH]ccc4c3)cc2N1 (configuration not stated) | active: 89.1 µM
40 | O=C(O)c1ccc2c(c1)n(Cc1ccc(F)cc1)c(=O)c1ccnn12 | inconclusive: 50.1 µM [inhibitor, partial curve, poor fit]
41 | O=C(CCl)N1CCC2(CC1)CC(c1cccc(C(F)(F)F)c1)=NO2 | inconclusive: 79.4 µM [inhibitor, partial curve]
42 | CC(C)Nc1cc(N2CCN(Cc3ccccc3F)C(CCO)C2)ncn1 (configuration not stated) | inconclusive: 28.2 µM [inhibitor, partial curve, poor fit]

Row | Compound | Potency
43 | CCn1nccc1C(=O)N1CC[C@@H]2CN(Cc3ccccc3)[C@@H]2C1 | inconclusive: 39.8 µM [inhibitor, partial curve, poor fit]
44 | COc1cccc(S(=O)(=O)N2CCC3(CC2)C(OC)C(=O)N3c2cccc(F)c2)c1 (configuration not stated) | inconclusive: 44.7 µM [inhibitor, partial curve, poor fit]
45 | CCN1CCN(C(=O)c2cc(-c3ccc(C(F)(F)F)cc3)nc3c2cnn3C)CC1 | inconclusive: 44.7 µM [inhibitor, partial curve, poor fit]
46 | C#CCN(C)Cc1nc(C2(O)CCN(C(=O)COC)CC2)cs1 | inactive
47 | CCC(O)C(=O)N1CCc2onc(-c3ccc(-c4ccccc4)cc3)c2C1 (configuration not stated) | inconclusive: 50.1 µM [inhibitor, partial curve, poor fit]
48 | Cc1nn(C)c(C)c1S(=O)(=O)N1CCOc2ccc(CN3CCOCC3)cc2C1 | inactive
49 | O=C(Nc1cccc(C(F)(F)F)c1)c1nc2c(o1)CCN(Cc1cnc[nH]1)CC2 | inconclusive: 89.1 µM [inhibitor, partial curve, poor fit]
50 | O=C(c1ccco1)N1CCC(N2CC3(CCCC3)C2c2ccccc2)CC1 (configuration not stated) | inconclusive: 56.2 µM [inhibitor, partial curve, poor fit]
51 | CCCc1ccc(S(=O)(=O)N(CCC)CC2CCOC2)cc1 (configuration not stated) | inconclusive: 31.6 µM [inhibitor, partial curve, poor fit]
52 | COCC1CN(S(=O)(=O)c2ccc(C)c(F)c2)CC12CCNCC2 (configuration not stated) | inactive
53 | CCc1ccc(N2CC(c3noc(-c4nccc5ccccc45)n3)CC2=O)cc1 (configuration not stated) | inconclusive: 44.7 µM [inhibitor, partial curve, poor fit]
54 | Cc1ccccc1OCc1nc(C2CN(C(=O)c3nccc4ccccc34)C2)no1 | inconclusive: 50.1 µM [inhibitor, partial curve, poor fit]
55 | NC(=O)c1cccnc1OC1CCN(C(=O)c2ccoc2)C1 (configuration not stated) | inactive
56 | O=C(c1cccc(F)c1)N1CCC(Cc2nc(C3CCOCC3)no2)CC1 | inconclusive: 39.8 µM [inhibitor, partial curve, poor fit]
57 | COC(=O)c1ccc(COCC2=CC(C)(C)COc3ccc(OC)cc32)cc1 | inconclusive: 44.7 µM [inhibitor, partial curve, poor fit]
58 | CN(Cc1cccnc1)C(=O)c1ccc2c(c1)C(O)CCCCCN2C (configuration not stated) | inconclusive: 44.7 µM [inhibitor, partial curve, poor fit]
59 | COc1cc(NC(=O)Cn2c(-c3ccc(Cl)cc3)nc(C)cc2=O)cc(OC)c1OC | inconclusive: 22.4 µM [inhibitor, full curve]
60 | O=C(NCCCc1ccccc1)C1CCCN(Cc2cccc(-c3ccsc3)c2)C1 (configuration not stated) | active: 35.5 µM
61 | O=C(Cc1c[nH]c2ncc(-c3ccc(F)cc3)cc12)NCc1cccnc1 | inconclusive: 39.8 µM [inhibitor, partial curve, poor fit]
62 | O=C(c1ccccc1Cl)N1CCC2(CC1)NC(=O)N(c1cccc(Cl)c1)N2 | inconclusive: 44.7 µM [inhibitor, partial curve, poor fit]
